# Experimental data from patent publication US20260167731A1.
# Key:
# hCCR8 SNAP-tag (human) = hCCR8 SNAP-tag (human) (UniProt P51685); experiment: HTRF Tag-lite, inhibition of hCCL1-AF647 binding to SNAP-tag hCCR8 on HEK-293
# human CCR8 (human) = human CCR8 (human) (UniProt P51685); experiment: flow cytometry, inhibition of hCCL1-AF647 binding to hCCR8 CHO cells
substance,measurement,setting,value
murine anti-human CCR8 monoclonal antibody L263G8,IC50,hCCR8 SNAP-tag (human),0.14 µg/mL and 0.96 nM [columns of one line]
same,Ki,hCCR8 SNAP-tag (human),0.07 µg/mL and 0.48 nM [columns of one line]
same,IC50,human CCR8 (human),0.4 µg/mL and 2.7 nM [columns of one line]

# Some entries of the source have several records that differ or are many. This is not the full list of results. The source may hold further records. Values given together appear to be repeats (runs, samples, wells or individuals).
